US10111437B2, “Substituted guanidines as fungicides” (Nippon Soda Co., Ltd., priority 2015, dated 2018)

System: wheat powdery mildew fungus (Blumeria graminis f. sp. tritici)
Assay: Wheat powdery mildew control test (foliar spray on wheat seedlings)
Settings: in Triticum aestivum, 168 h, read-out: control value

SMILES	pest or weed control at 125 ppm [%]
N=C(N)NCCCCCCCCNC(=N)NCCOc1ccc(C2=NCCCN2)nc1 [compound 288]	≥ 75
CN1CCCN=C1c1ccc(OCCNC(=N)NCCCCCCCCNC(=N)N)cc1 [compound 300]	≥ 75
